Among all 310,000 compounds or so, about 2,200 (0.71%) showed an effect of 50% or more. Effects have a minus sign here. The list shows a part of the results.
molecular target: human ether-à-go-go-related gene (hERG) potassium channel (human, UniProt Q12809); assay: primary screen, population patch clamp on CHO cells stably expressing hERG
Sequence (Q12809 whole entry, looked up): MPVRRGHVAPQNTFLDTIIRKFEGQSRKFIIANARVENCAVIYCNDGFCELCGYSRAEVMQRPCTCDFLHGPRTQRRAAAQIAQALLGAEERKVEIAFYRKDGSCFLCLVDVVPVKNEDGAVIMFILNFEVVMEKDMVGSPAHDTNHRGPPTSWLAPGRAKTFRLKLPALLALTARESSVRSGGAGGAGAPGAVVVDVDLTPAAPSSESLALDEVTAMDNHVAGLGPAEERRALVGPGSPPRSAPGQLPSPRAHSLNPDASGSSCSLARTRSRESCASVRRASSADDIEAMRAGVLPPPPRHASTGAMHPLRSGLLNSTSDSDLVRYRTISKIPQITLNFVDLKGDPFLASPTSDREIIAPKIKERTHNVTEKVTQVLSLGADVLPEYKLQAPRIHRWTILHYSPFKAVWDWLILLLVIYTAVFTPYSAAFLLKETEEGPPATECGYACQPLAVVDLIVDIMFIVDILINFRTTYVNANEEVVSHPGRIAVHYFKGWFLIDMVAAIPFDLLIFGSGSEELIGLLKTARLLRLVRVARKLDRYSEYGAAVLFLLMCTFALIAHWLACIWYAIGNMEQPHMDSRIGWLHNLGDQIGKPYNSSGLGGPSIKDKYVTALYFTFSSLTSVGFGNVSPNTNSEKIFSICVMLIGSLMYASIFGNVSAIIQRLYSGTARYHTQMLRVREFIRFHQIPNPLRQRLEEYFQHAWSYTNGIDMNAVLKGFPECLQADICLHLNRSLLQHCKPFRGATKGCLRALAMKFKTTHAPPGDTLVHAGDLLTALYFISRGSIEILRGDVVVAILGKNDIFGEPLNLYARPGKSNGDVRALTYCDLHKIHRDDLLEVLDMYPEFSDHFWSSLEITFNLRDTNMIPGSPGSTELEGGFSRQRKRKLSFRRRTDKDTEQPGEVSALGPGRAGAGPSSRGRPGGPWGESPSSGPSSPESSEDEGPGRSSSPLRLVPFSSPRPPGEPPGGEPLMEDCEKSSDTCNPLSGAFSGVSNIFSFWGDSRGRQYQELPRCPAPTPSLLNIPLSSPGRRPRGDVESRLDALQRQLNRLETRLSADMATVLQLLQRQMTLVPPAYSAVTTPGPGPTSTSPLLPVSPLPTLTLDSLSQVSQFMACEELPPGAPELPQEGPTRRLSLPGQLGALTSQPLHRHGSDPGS

Structure (SMILES)	hERG current change (%, negative = inhibition) at 1uM
Cc1c(OCC(=O)NC(Cc2ccc(Cl)cc2)C(=O)O)ccc2c3c(c(=O)oc12)CCC3 (stereo not shown)	3.19%
Cc1ccc(CC2SC(=Nc3ccccc3)N(c3ccccc3)C2=O)cc1 (stereo not shown)	14.1%
COc1ccccc1NCC(=O)NNC(C)C(=O)Nc1cccc(Cl)c1 (stereo not shown)	8.78%
Clc1ccc(-c2nc3cnccn3c2NC2CCCC2)cc1	4.38%
Cc1ccc(NC(=O)CC2NCCNC2=O)cc1 (stereo not shown)	-5.51%
NC(=O)C(c1ccc(Br)cc1)c1ccc(C(=O)c2ccccc2)cc1 (stereo not shown)	5.64%
CC(=O)Nc1ccc(NC(=S)NC(=O)c2ccc(-c3ccccc3)cc2)cc1	13.4%
Cc1ccc(C2SCC(=O)N2Cc2ccccc2)cc1 (stereo not shown)	8.4%
CC(C)CC(O)C1CCN(C(=O)CCc2nnc(-c3ccccc3)o2)CC1 (stereo not shown)	7.15%
Cc1ccc(OCCn2cc(C#N)c3ccccc32)cc1	-0.345%
CCOC(=O)N1CCN(S(=O)(=O)c2cccc3nsnc23)CC1	7.05%
CC(=O)Nc1ccc(NC(=O)c2ccnn2C)cc1	7.47%
CC(=O)c1cccc(NC(=O)COC(=O)c2cccc(N3C(=O)c4ccccc4C3=O)c2)c1	7.09%
CCn1c(CSc2ncccn2)nnc1SCC(=O)N1CCCCC1	22.9%
NC(=O)c1ccccc1NC(=O)C1CCCO1 (stereo not shown)	9.69%
COc1ccc(/C(N)=N/OC(=O)Cc2cccs2)cc1OC	12.2%
COc1ccc(S(=O)(=O)N2CCN(C(=O)c3c(C)nn(-c4ccccc4)c3Cl)CC2)cc1	-4.63%
C/C(=N\NS(=O)(=O)c1ccccc1)c1ccc2c(c1)OCCO2	0.17%
Cc1cccc(NC(=O)CN2C(=O)CCS(=O)(=O)c3ccccc32)c1C	8.34%
Cc1cc(N2CCOCC2)ccc1/C=C1\NC(=O)N(Cc2ccccc2F)C1=O	12.7%
CC(C)Cn1c(=O)[nH]c(=O)c2c(C(F)(F)F)cc(-c3ccccc3)nc21	6.91%
Cc1ccc(N2C(=O)CC(Sc3nc4ccccc4o3)C2=O)cc1Cl (stereo not shown)	13.1%
Cc1ccc(S(=O)(=O)N2CC2(C)CCl)cc1 (stereo not shown)	4.4%

Structure (SMILES)	hERG current change (%, negative = inhibition) at 1uM
COC(=O)C1(C(=O)O)Cc2cc([N+](=O)[O-])ccc2N2CCCC21 (stereo not shown)	-7.1%
Cc1nn(C2CCS(=O)(=O)C2)c(C)c1CN(C)C(=O)c1ccc(Cl)cc1 (stereo not shown)	2.19%
CC(C)C[C@@H](CO)N1CCN(CCCc2ccccc2)CCC1=O	-14%
CNC(=O)NCC12CC3CC(CC(C3)C1)C2	3.03%
O=C(O)c1cc(Cl)c2ccccc2c1O	11.1%
Cc1ccc(C(=O)NCC(=O)OCC(=O)c2ccc3c(c2)NC(=O)CO3)cc1C	-0.132%
CCCn1nc(CC(=O)OCC)c2ccccc2c1=O	7.27%
OCCC1CN(Cc2c(O)ccc3ccccc23)CCN1CCc1ccccc1 (stereo not shown)	3.65%
CCC1CCCCN1S(=O)(=O)c1ccc(S(=O)(=O)N(Cc2cccs2)C2CC2)cc1 (stereo not shown)	10.7%
CO/N=C/CC(=O)c1ccc(-c2ccccc2)cc1	7.16%
O=c1c(Cc2ccc(F)cc2)c(O)ccn1Cc1ccc(F)cc1	8.37%
C=CCCC(=O)Nc1ccc(Br)cn1	8.76%
CCOC(=O)c1cc2occc2n1CC(=O)N1CCOCC1	11.3%
O=C(N/N=C\c1ccc2c(c1)OCO2)c1ccco1	11.8%
CCOc1ccc(/C=N/NC(=O)NC23CC4CC(CC(C4)C2)C3)cc1O	13.8%
COc1cc(OC)cc(C(=O)Nc2cccc(-c3ccc4nncn4n3)c2)c1	11.2%
CCOc1cc(CNn2cnnc2)ccc1OCC(=O)NC1CCCCC1	9.74%
CC1(C)C2(C#N)C(N)=NC3(OCCO3)C12C#N (stereo not shown)	19.1%
O=C(CCCCCN1C(=O)c2ccccc2C1=O)Nc1ccc(F)cc1	6.37%
CCn1cc2nc(SCC(=O)Nc3ccccc3F)n(Cc3ccccc3)c(=O)c2n1	-33.5%
O=C(NCc1ccco1)Nc1ccc(Br)cc1	10.9%
O=C(CNc1cccc2ccccc12)N/N=C/c1ccc[nH]1	13.5%
COc1ccc(-c2nnc(SCC(=O)c3cccs3)n2-c2ccc(Cl)cc2)cc1	6.02%

Structure (SMILES)	hERG current change (%, negative = inhibition) at 1uM
CC1CCCCN1C(=O)CSc1nc2ncccc2[nH]1 (stereo not shown)	11.8%
CN(C)c1nc(Oc2ccc(=O)n(-c3ccccc3)n2)nc(N2CCOCC2)n1	11.7%
COC(=O)c1ccccc1NS(C)(=O)=O	20%
Cc1cc(/C=C2/C(=O)N(C)C(=S)N2C)c(C)n1C1CC1	11.7%
Cc1sc2ncn(CC(=O)NCCc3ccccc3)c(=O)c2c1C	0.253%
COCCNC(=O)C(c1ccc(C)o1)N(Cc1ccco1)C(=O)c1snc(C(N)=O)c1N (stereo not shown)	12.4%
COc1ccc(/C=N/NC(=O)c2ccc(Br)cc2)cc1CN1CCOCC1	-23.8%
CCOc1ccc(-c2cc(C(=O)N/N=C(\C)c3cccnc3)c3ccccc3n2)c(OCC)c1	18.7%
N#Cc1nc(-c2ccc(OCc3ccccc3)cc2)oc1N1CCC(C(N)=O)CC1	11.3%
COc1ccc(S(=O)(=O)N(CCc2ccccc2)CC(N)=O)cc1	-2.02%
O=C(NCc1ccc2c(c1)OCO2)c1cc(-c2ccc(Cl)cc2Cl)on1	11.9%
O=C(NCc1ccc(Cl)cc1)C1CCC(CNS(=O)(=O)c2ccccc2)CC1 (stereo not shown)	1.72%
CC1=C(C(=O)OCc2ccccc2)C(c2ccco2)n2ncnc2N1 (stereo not shown)	-4.04%
Br.C[C@@H]1NCCc2cc(O)c(O)cc21	7.2%
CC(C)NC(=S)N(C)C1(c2ccccc2Cl)CCCCC1=O (stereo not shown)	8.9%
CCCCCNC(=O)CSC1=N/C(=C\c2ccc(Cl)c(Cl)c2)C(=O)N1CC	3.28%
O=C(CN1C(=O)C2C3C=CC(C3)C2C1=O)NCC1COc2ccccc2O1 (stereo not shown)	9.79%
CCCCC(=O)N=c1sc2c(OC)ccc(OC)c2n1C	16.8%
CCCn1nc(C(=O)OCC(=O)Nc2cccc(OC)c2)c2ccccc2c1=O	9.3%
CS(=O)(=O)N1CCN(c2ccc([N+](=O)[O-])c(NCCN3CCOCC3)c2)CC1	4.78%
Cl.O=C(NCCN1CCOCC1)C12CC3CC(C1)CC(c1ccccc1)(C3)C2	9.19%
O=C(c1cc(-c2cccnc2)nc2ccccc12)N1CCC2(CC1)OCCO2	-2.46%
O=S1(=O)N=C(N(CCO)/N=C/c2ccc(Br)cc2)c2ccccc21	16.9%

Structure (SMILES)	hERG current change (%, negative = inhibition) at 1uM
COc1ccc(OC)c(-n2c(O)c(C=NCCN3CCNCC3)c(=O)[nH]c2=S)c1	16.1%
CCOc1ccc(NC(=O)c2cnsn2)cc1	9.01%
Cc1cccnc1NC(=O)c1ccc(S(=O)(=O)NCc2ccco2)cc1	14.8%
Cc1c(Cl)cccc1NC(=O)C1COc2ccccc2O1 (stereo not shown)	12.3%
COc1ccc(-c2nnc(SCC(=O)NCC3CCCO3)n2C)cc1 (stereo not shown)	19.8%
N#Cc1cccnc1N1CCC(C(N)=O)CC1	14%
Cc1ccc(S(=O)(=O)N(C)C)cc1NC(=O)c1ccc(OC(F)(F)F)cc1	-11.9%
COc1cccc(NC(=S)NCc2ccc(F)cc2)c1	8.29%
Cc1cccc(NC(=O)C2CCCN(c3nc(C)cc(C)n3)C2)c1 (stereo not shown)	6.68%
O=[N+]([O-])c1ccc(NCCO)c2ncccc12	10.7%
O=C(NCc1ccc2c(c1)OCO2)C1CCCN1S(=O)(=O)c1ccc(F)cc1 (stereo not shown)	3.85%
CC(C)(C)NC(=O)NC(=O)COC(=O)CNS(=O)(=O)c1ccc(Br)cc1Cl	25.9%
COC(=O)C(C)Oc1ccc(-c2nccc(-c3ccc(F)cc3)n2)cc1 (stereo not shown)	17.4%
COC(=O)c1ccc(/C=C2\CCn3c2nc2cc(C(=O)O)ccc2c3=O)cc1	11%
COc1ccc(NC(=O)CSc2nc3[nH]c(=O)[nH]c(=O)c3s2)cc1OC	17.6%
O=C(Cn1cc([N+](=O)[O-])cn1)Nc1nccs1	12.8%
O=C(c1c[nH]c(C(=O)C(Cl)(Cl)Cl)c1)c1c(F)cccc1F	3.92%
C#CCOc1c(Cl)cc(/C=C2/C(=O)ON=C2C)cc1OCC	8.85%
COc1ccc(S(=O)(=O)N2CCc3ccccc32)cc1C(=O)Nc1ccc(C(N)=O)cc1	10.8%
C=Cn1ccnc1P(=S)(c1ccn(C)c1)c1nccn1C=C	14.1%
O=C(CCN1C(=O)C2C3CCC(C3)C2C1=O)Nc1ccc([N+](=O)[O-])cc1 (stereo not shown)	-8.07%
CSc1ccc(Cl)c(C(=O)OCC(=O)NCc2ccco2)c1	14.7%
